Measured values taken from PubChem BioAssay AID504332 (National Center for Advancing Translational Sciences (NCATS), 2011).
Out of some 350,000 compounds screened, about 31,000 (8.9%) were called active. Inconclusive results, whose numbers are uncertain, are shown with a selection of clear calls. The call rests on the fitted dose curve; in most records, active means well fitted inhibition curve with a large enough effect; inconclusive means small, poorly fitted or top-dose-only effect; inactive means no such curve, though single readings can be large or run the other way. A potency beside an inconclusive call is a rough fit, not a confirmed value.

What follows are compounds tested against Histone-lysine N-methyltransferase EHMT2 (Homo sapiens) (UniProt Q96KQ7) (assay: qHTS Assay for Inhibitors of Histone Lysine Methyltransferase G9a). Settings: G9a H3K9 monomethylation, AlphaScreen, 2 h; activity, negative = inhibition: at 59 µM (top of the series) unless noted.
How it was run: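 Chemiluminescent proximity detection of H3K9 monomethylation, read after 10 min bead incubation in the dark. Reaction: 20 nM G9a, 500 nM biotin-H3K9 peptide, 20 uM SAM cofactor, 2 h, room temperature, following 15 min enzyme-compound preincubation.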
Further: nearly all actives have a fitted effect of over 75% in size.
On the % scale 0 is the no-effect control and ±100 the full control effect; potency means the concentration at half of the fitted maximal effect; tags describe the fitted curve by direction and shape.

Chain of UniProt Q96KQ7 (Q96KQ7 whole entry, looked up): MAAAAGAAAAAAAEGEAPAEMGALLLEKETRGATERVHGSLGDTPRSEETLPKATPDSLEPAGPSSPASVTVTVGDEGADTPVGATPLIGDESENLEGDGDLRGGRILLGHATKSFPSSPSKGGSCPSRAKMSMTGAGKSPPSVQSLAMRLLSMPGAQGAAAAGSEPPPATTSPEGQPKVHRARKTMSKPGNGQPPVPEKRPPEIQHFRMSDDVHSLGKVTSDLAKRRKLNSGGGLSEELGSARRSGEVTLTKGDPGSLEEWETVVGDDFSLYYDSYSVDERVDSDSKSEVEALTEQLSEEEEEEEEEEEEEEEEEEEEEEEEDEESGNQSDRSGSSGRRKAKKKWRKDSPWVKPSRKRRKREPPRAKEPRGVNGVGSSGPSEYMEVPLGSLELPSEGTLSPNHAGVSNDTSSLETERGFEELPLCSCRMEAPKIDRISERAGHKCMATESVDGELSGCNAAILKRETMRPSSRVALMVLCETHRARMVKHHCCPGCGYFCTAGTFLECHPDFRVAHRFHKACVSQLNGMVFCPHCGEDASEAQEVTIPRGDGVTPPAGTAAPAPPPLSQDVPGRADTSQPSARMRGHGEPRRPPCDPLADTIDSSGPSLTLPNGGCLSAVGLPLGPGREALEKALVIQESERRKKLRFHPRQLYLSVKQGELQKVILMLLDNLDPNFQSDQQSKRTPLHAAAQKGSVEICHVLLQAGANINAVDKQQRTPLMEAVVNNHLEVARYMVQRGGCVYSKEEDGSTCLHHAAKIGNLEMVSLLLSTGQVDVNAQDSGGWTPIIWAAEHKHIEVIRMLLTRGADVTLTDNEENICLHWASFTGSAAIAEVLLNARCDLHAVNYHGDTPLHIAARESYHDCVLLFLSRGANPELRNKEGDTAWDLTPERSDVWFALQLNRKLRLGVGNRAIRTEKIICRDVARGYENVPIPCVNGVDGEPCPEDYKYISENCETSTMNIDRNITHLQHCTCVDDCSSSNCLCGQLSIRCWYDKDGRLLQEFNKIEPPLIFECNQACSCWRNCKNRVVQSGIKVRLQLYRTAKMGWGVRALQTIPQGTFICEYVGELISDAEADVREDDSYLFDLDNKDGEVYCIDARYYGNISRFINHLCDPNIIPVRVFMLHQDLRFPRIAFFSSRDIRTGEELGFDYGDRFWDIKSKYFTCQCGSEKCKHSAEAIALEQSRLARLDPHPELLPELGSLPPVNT

Structure (SMILES) | Potency | activity, negative = inhibition
Cc1ccc(C2=NN(C(=O)CSc3nc(N)cc(N)n3)C(c3ccco3)C2)cc1 (stereo unspecified) | active: 50.1 µM | 
CCC(Sc1nc2n[nH]c(C)c2c(=N)n1-c1ccc(C)c(Cl)c1)C(=O)N1CCOCC1 (stereo unspecified) | inconclusive: 3.16 µM [inhibitor, single point] | 
Cn1nnc(C(O)CNCc2ccc(Cl)cc2)n1 (stereo unspecified) |  | inactive: -48%
COc1ccc(C(=O)N/N=C/c2ccc(OC)c(CN3CCN(c4ccc(F)cc4)CC3)c2)cc1 |  | inactive: 3.98%
COC(=O)CN1C(=O)[C@H]2[C@@H](c3ccc(C)o3)N3C(=O)CN(Cc4ccccc4)C(=O)[C@@]3(C)[C@H]2C1=O | active: 44.7 µM | 
CN1C(=S)SC(N(O)C=C2C=CC(=O)C=C2)C1(C)C (stereo unspecified) | inconclusive: 79.4 µM [inhibitor, partial curve, poor fit] | 
C[n+]1cnc(-c2ccccc2)cc1-c1ccccc1 | inconclusive: 2.24 µM [inhibitor, full curve, poor fit] | 
CCc1nnc(N/N=C/c2ccc(N3CCC(C)CC3)c([N+](=O)[O-])c2)n1N | active: 50.1 µM | 
N#Cc1c[nH]n2c(NC3CCCCC3)c(-c3cccc(Cl)c3)nc12 |  | inactive: -11.1%
COc1ccc(N2C(=O)/C(=C\c3ccco3)N=C2SCC(=O)N(C(C)C)C(C)C)cc1Cl |  | inactive: 12.6%
COc1ccc(N=Nc2cc(C)c(O)c(CN3CCCCC3)c2)cc1 | active: 11.2 µM | 
O=C(CCN1C(=O)/C(=C/c2ccccc2)SC1=S)NNC(=O)c1ccncc1 |  | inactive: -5.66% [at 102 µM]
COc1ccc(CNC(=O)c2ccc(-c3nc(CSc4ccccc4)c(C)o3)cc2)c(OC)c1 | inconclusive: 3.98 µM [inhibitor, partial curve, poor fit] | 
CC(=O)c1cccc(NC(=O)c2cc3nc(-c4ccc(Br)cc4)cc(C(F)(F)F)n3n2)c1 |  | inactive: 6.3%
CCCC(=O)NC(c1ccc(Cl)cc1Cl)c1ccc2cccnc2c1O (stereo unspecified) |  | inactive: 20% [at 102 µM]
Cc1ccsc1/C=C(\C(=O)c1ccc(OC(C)C)cc1)c1nc2ccccc2o1 | inconclusive: 63.1 µM [inhibitor, partial curve, poor fit] | 
Cc1cc(C)c(C#N)c(SCc2nnc(-c3ccccc3)o2)n1 |  | inactive: -8.51%
COc1cc(C(=O)N2CC(=O)Nc3ccc(C)cc3C2c2ccc(F)cc2)cc(OC)c1OC (stereo unspecified) |  | inactive: -0.528%
CCOC(=O)CNC(=O)COc1coc(CN2CCN(c3ccc(F)cc3)CC2)cc1=O |  | inactive: 3.14% [at 102 µM]
N#Cc1cccc(-c2cc(NCc3cccnc3)ncn2)c1 |  | inactive: 11.5% [at 0.501 µM]
CCc1ccc(-c2nc(CCl)cs2)cc1 | inconclusive: 79.4 µM [inhibitor, single point] | 
COc1cc(C=O)c(Br)cc1OCC(=O)NCCc1ccccc1 |  | inactive: -5.92% [at 102 µM]
Cc1ccccc1OCCN1CCC(Cc2ccccc2)CC1 | inconclusive: 10 µM [inhibitor, full curve, poor fit] | 

Structure (SMILES) | Potency | activity, negative = inhibition
O=C(CC1SC(N2CCCC2)=NC1=O)Nc1ccc(C(=O)N2CCN(c3cccc(Cl)c3)CC2)cc1 (stereo unspecified) | inconclusive: 79.4 µM [inhibitor, single point] | 
CCN(CC)c1ccc(/C=N/NC(=O)c2ccc(Br)o2)cc1 | inconclusive: 70.8 µM [inhibitor, single point] | 
CCOC(=O)/C(=N/Nc1ccccc1)Sc1nnnn1-c1ccc(C)cc1 | inconclusive: 10 µM [inhibitor, partial curve, poor fit] | 
Cc1cccc(NC(=S)NNC(=O)c2ccc(Br)o2)c1 | inconclusive: 17.8 µM [inhibitor, single point] | 
Cc1ccc(S(=O)(=O)N(C)c2ccc(OC(=O)CN3C(=O)NC4(CCCC4)C3=O)cc2)cc1 | inconclusive: 63.1 µM [inhibitor, partial curve, poor fit] | 
O=c1[nH]c(/C=C/c2cccc([N+](=O)[O-])c2)c([N+](=O)[O-])c(=O)[nH]1 | active: 79.4 µM | 
O=C(CCCn1c(=O)oc2ccccc21)Nc1ccccc1 |  | inactive: -11.7% [at 102 µM]
COc1ccc(Nc2cc(C)c3cc(NC(=O)c4cc(OC)cc(OC)c4)ccc3n2)cc1 | inconclusive: 17.8 µM [inhibitor, partial curve, poor fit] | 
CCN(CC(=O)Nc1ccccc1C(F)(F)F)C(=O)CCc1nc2sc3c(c2c(=O)[nH]1)CCCC3 |  | inactive: 4%
COc1ccccc1OCCC(=O)Nc1nc(C)cs1 |  | inactive: -1.36% [at 102 µM]
Cc1cnc(NC(=O)c2sc3ccccc3c2Cl)s1 |  | inactive: 15.6% [at 102 µM]
O=C1CC(NNc2ccccc2)C(=O)N1c1cccc(Cl)c1 (stereo unspecified) | inconclusive: 28.2 µM [inhibitor, single point] | 
COc1ccc(C)cc1Nc1n[n+](C)c(-c2ccc(C(=O)O)cc2)s1 | inconclusive: 0.398 µM [inhibitor, partial curve, poor fit] | 
c1ccc(N(c2ccccc2)c2nc(N3CCCC3)nc(-n3ccnc3)n2)cc1 | inconclusive: 39.8 µM [inhibitor, single point] | 
CCOC(=O)CSC1=NC(=O)/C(=C\c2ccc(Cl)cc2)S1 | active: 35.5 µM | 
C[C@@H](C(=O)NCc1ccc(S(C)(=O)=O)cc1)[C@H]1C[C@]1(C)[C@H](NC(=O)OCc1ccccc1)c1ccccc1 | inconclusive: 89.1 µM [inhibitor, single point] | 
COc1ccc(S(=O)(=O)NCc2ccc(C(=O)NCc3ccccc3)cc2)cc1 |  | inactive: -18.1%
Cc1ccc(NC(=O)CN(C)C(=O)c2ccc3[nH]c4c(c3c2)CC(C)CC4)cc1 (stereo unspecified) | inconclusive: 7.08 µM [inhibitor, single point] | 
CN(C)/C=C(\C#N)S(=O)(=O)c1ccccc1 |  | inactive: -5.82% [at 102 µM]
N#Cc1ccc(-c2ccc(Cl)cc2)nc1SCC(=O)c1cccc(Cl)c1 | inconclusive: 17.8 µM [inhibitor, partial curve, poor fit] | 
O=C1c2ccccc2-c2n[nH]c(=O)c3ccc(N4CCCCC4)c1c23 | inconclusive: 7.94 µM [inhibitor, partial curve, poor fit] | 
O=C1c2ccccc2C(O)(Cc2ccccc2)N1c1ccc2c(c1)OCO2 (stereo unspecified) | inconclusive: 44.7 µM [inhibitor, partial curve] | 
Cc1ccc(N2C(=O)C3C4C=CC(CC4)C3C2=O)cc1Cl (stereo unspecified) | inconclusive: 79.4 µM [inhibitor, single point] | 
